Assay results reported in paper PMC4374383.
These are yes or no findings as the source states them, for the method shown. Binding seen in cells or lysates may run through a third protein. Some binding calls cover weakened binding; strength is not graded here.

By UniProt entry, the sequences of proteins in these tests, tags left out.
UniProt Q02078: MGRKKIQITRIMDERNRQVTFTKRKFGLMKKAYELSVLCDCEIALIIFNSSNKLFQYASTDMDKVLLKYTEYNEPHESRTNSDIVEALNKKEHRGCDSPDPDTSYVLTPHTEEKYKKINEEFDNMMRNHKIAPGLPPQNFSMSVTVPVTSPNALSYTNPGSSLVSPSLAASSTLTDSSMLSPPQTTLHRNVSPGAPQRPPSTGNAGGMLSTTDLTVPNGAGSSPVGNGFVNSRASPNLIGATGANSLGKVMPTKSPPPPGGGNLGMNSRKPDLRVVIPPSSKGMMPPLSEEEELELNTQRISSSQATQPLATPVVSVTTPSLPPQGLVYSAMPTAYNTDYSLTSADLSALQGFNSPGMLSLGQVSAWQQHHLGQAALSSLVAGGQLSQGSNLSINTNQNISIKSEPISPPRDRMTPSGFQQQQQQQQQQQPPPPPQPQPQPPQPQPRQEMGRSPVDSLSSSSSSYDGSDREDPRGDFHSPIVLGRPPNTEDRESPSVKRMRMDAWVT
UniProt Q92831: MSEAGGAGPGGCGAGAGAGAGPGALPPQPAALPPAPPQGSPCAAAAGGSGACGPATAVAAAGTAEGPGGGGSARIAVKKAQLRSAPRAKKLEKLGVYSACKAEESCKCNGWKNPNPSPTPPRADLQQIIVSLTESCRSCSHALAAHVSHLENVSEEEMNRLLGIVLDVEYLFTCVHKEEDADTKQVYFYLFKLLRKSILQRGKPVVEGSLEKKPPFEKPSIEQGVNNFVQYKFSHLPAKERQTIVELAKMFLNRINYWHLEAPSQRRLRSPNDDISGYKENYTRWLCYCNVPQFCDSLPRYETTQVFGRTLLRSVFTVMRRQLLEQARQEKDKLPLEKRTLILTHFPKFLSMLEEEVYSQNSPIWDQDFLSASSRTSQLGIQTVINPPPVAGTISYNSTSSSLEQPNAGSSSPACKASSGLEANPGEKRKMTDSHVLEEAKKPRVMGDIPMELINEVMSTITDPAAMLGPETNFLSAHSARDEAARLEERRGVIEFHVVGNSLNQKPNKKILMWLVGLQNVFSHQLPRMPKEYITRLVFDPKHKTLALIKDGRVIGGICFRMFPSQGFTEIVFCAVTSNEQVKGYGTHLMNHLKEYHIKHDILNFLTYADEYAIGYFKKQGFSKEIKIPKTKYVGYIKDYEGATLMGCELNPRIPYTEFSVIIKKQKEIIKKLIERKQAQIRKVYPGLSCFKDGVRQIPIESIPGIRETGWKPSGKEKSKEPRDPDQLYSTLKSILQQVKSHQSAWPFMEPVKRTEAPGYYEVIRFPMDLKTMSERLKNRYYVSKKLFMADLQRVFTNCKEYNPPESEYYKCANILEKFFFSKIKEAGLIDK
UniProt Q9UKV0: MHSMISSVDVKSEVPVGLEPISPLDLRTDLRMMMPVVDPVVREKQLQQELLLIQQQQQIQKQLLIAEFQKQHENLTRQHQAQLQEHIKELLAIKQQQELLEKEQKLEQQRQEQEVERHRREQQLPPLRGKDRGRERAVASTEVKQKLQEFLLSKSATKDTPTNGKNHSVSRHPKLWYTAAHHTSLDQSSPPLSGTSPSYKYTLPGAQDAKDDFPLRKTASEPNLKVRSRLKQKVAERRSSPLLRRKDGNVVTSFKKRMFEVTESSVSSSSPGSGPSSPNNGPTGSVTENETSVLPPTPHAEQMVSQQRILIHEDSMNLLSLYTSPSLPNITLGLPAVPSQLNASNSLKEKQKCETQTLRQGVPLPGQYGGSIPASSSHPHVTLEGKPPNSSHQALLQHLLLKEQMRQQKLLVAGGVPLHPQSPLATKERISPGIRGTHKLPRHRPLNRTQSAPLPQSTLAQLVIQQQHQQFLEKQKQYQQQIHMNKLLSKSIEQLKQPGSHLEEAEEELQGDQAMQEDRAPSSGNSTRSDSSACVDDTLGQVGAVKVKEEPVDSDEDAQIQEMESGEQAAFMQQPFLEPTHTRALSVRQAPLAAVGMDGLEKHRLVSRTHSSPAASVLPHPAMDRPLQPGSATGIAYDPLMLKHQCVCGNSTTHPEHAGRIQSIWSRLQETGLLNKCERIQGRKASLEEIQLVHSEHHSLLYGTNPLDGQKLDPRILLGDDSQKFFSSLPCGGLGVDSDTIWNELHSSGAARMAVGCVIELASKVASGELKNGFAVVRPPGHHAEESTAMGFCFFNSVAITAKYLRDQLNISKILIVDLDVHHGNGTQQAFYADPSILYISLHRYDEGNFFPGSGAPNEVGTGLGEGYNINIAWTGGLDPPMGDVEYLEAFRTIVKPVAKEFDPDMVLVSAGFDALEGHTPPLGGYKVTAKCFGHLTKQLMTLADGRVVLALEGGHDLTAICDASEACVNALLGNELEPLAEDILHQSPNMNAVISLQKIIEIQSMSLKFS
UniProt P16220: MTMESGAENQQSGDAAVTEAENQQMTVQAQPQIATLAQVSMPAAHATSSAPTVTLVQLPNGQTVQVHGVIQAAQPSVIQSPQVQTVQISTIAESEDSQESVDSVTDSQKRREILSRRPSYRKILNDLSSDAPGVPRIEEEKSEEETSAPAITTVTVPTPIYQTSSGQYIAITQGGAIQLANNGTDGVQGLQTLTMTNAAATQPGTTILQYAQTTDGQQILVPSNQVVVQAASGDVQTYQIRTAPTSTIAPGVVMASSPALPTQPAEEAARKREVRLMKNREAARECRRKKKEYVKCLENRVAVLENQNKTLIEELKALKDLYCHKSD

What was measured:
[1] = biological target: HTLV-1 Tax (viral transactivator protein) (HTLV-1) (UniProt P03409); assay: co-IP; immunoprecipitation with 2 ug anti-Tax antibody (LT-4) from sonicated lysates of Jurkat, MT-2, control and HTLV-infected primary CD4+ T cells; lysis buffer 25 mM Tris-HCl pH 7.4, 150 mM NaCl, 1% NP-40, 1 mM EDTA, 5% glycerol; protein A/G magnetic beads; Western blot
[2] = biological target: Myocyte enhancer factor-2A (MEF-2A) (human (endogenous in Jurkat, MT-2, C8166, 293 T and primary CD4+ T cells)) (UniProt Q02078); assay: co-IP; immunoprecipitation with 2 ug anti-MEF-2A antibody (Santa Cruz) overnight at 4°C from sonicated lysates of Jurkat, MT-2, control and HTLV-infected primary CD4+ T cells; lysis buffer 25 mM Tris-HCl pH 7.4, 150 mM NaCl, 1% NP-40, 1 mM EDTA, 5% glycerol; protein A/G magnetic beads; Western blot
[3] = biological target: FLAG-Tax (HTLV-1) (UniProt P03409); assay: co-IP; 293 T cells transfected with mock or FLAG-Tax plasmid for 36 hr; precipitation with anti-FLAG antibody, immunoblotting with anti-MEF-2 antibody
[4] = biological target: HTLV-1 Tax (viral transactivator protein) (HTLV-1) (UniProt P03409); assay: co-IP; IgG control or Tax immunoprecipitation from whole cell lysates of C8166 cells, immunoblotting

p300/CBP associated factor (p/CAF) (from UniProt Q92831 1-832)
binding [1]: binds

p300 (from UniProt Q09472 1-2414)
binding [1]: binds

Histone deacetylase 9 (HDAC9) (from UniProt Q9UKV0 1-1011)
binding [2]: binds | binding [1]: no binding

phosphorylated cAMP response element-binding protein (pCREB) (from UniProt P16220 1-327)
binding [2]: binds | binding [1]: binds

CREB-binding protein (CBP) (from UniProt Q92793 1-2442)
binding [1]: binds

HTLV-1 Tax (viral transactivator protein) (from UniProt P03409 1-353)
binding [2]: binds

Myocyte enhancer factor-2A (MEF-2A) (from UniProt Q02078 1-507)
binding [3]: binds | binding [4]: binds | binding [1]: binds
